Results published in PubChem BioAssay AID360 (National Center for Advancing Translational Sciences (NCATS), 2006).
Among all 48,000 compounds or so, about 550 (1.1%) were called active. Another 4% or so got no clear call; they are omitted. No stated cut-off is given here; in the data, active means potency below about 15 µM; inconclusive means mostly about 16 µM to 33 µM; inactive means weaker than that. The list shows a part of the results.

Molecular target: Lysosomal acid glucosylceramidase (Homo sapiens) (UniProt P04062)
Chain of UniProt P04062 (P04062 whole entry, looked up): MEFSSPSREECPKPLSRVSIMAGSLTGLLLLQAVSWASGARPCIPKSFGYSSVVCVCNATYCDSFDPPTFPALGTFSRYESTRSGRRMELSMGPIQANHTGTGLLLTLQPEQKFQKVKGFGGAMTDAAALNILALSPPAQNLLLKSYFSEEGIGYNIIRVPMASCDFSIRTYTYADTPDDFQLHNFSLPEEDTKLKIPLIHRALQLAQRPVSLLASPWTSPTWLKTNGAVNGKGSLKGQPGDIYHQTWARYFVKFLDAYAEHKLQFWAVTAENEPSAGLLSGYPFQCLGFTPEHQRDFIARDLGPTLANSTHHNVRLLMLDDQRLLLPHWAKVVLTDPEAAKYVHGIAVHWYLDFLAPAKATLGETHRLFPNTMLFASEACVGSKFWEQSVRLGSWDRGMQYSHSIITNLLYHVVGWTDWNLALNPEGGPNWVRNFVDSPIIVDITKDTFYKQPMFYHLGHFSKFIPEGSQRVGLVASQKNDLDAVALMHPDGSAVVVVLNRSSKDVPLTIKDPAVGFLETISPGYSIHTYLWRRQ
Assay: Glucocerebrosidase;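 further: the screen sought inhibitors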
Settings: purified enzyme, resorufin glucoside fluorescence (screen aimed at inhibitors), 20 min
In short: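 Normal human glucocerebrosidase (0.2 nM final) was assayed with resorufin β-D-glucopyranoside (30 uM final) in 50mM citric acid/KH2PO4, 10mM sodium taurocholate, 0.01% tween-20, pH 5.9. Compounds were titrated; fluorescence (Ex 548, Em 600) read after 20 min at RT.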
Potency means the concentration at half of the fitted maximal effect.

Potency, inactive:
c1ccc(-c2csc(-n3cnnn3)n2)cc1 > 76.9 µM
Cc1ccc(-n2ncc(C(=O)N3CCc4ccccc4C3)c2NC(=O)c2ccco2)cc1C > 76.9 µM
CCOc1ccc(-c2nnn(CC(=O)NCc3ccco3)n2)cc1 > 76.9 µM
COc1cc(Cn2c(=O)oc3ccc(C)cc32)ccc1OC(C)C > 76.9 µM
CCOC(=O)N1CCN(S(=O)(=O)c2ccc(Br)s2)CC1 > 76.9 µM
CCc1ccccc1N1CC(C(=O)O)CC1=O (stereo unspecified) > 76.9 µM
C=CCSC1=C(C#N)C(c2cc(Br)c(O)c(OC)c2)CC(=O)N1 (stereo unspecified) > 76.9 µM
CCOC(=O)N1CCN(S(=O)(=O)c2c(C)nn(C)c2C)CC1 > 76.9 µM
Clc1cccc(-c2nnc3sc(-c4ccc5c(c4)OCO5)nn23)c1 > 76.9 µM
Cc1ccc(-n2c(C)cc(C(=O)CSc3nnnn3C)c2C)cc1 > 76.9 µM
Cc1ccc(C)c(Cn2c(=O)n(CCC(=O)NCc3ccco3)c(=O)c3sccc32)c1 > 76.9 µM
COc1cccc(C2C(C(=O)NCc3ccccc3)=C(C)Nc3ncnn32)c1 (stereo unspecified) > 76.9 µM
COc1ccc(OC)c(CNC(=O)CCN2C(=O)COc3ccccc32)c1 > 76.9 µM
CN1CCN(CC(=O)C23CC4CC(CC(C4)C2)C3)CC1 > 76.9 µM
O=C(c1cc2nc(-c3ccccc3)cc(-c3ccccc3)n2n1)N1CCN(C(=O)c2ccco2)CC1 > 76.9 µM
c1ccc(CNc2nc3ccccc3[nH]2)cc1 > 15.4 µM
O=C1CCCC2=C1C(c1ccncc1)c1c(nc(SCc3ccccc3Cl)[nH]c1=O)N2 (stereo unspecified) > 76.9 µM
OCCN(Cc1ccccc1)CC1CC2C=CC1C2 (stereo unspecified) > 76.9 µM
O=C(CN1CCC(n2nnc3cc(F)ccc32)CC1)NCc1ccco1 > 76.9 µM
Clc1ccccc1C1=Nn2c(nnc2-c2ccncc2)SC1 > 76.9 µM
COc1cccc(C(=O)Cn2c(Br)nc3c2c(=O)n(C)c(=O)n3C)c1 > 76.9 µM
CC1(C)CC(CC(=O)Nc2ccccn2)C(=O)O1 (stereo unspecified) > 76.9 µM
O=C(CSc1nnc(-c2ccco2)n1Cc1ccccc1)c1ccc(F)cc1 > 76.9 µM
CCCCn1c(SCC(=O)N2CCCc3ccccc32)nc2c1c(=O)n(C)c(=O)n2C > 76.9 µM
Cc1c(Cl)cccc1NC(=O)CN1CCN(CCO)CC1 > 76.9 µM
c1cn2cc(CN3CCOCC3)nc2s1 > 76.9 µM
CN1C(=O)c2ccc(C(=O)NC3CCCCC3)cc2C1=O > 76.9 µM
Cc1cc(C)cc(N(C(=O)CNC(=O)c2ccco2)C(C(=O)NC2CCCC2)c2cccnc2)c1 (stereo unspecified) > 76.9 µM
Cn1c(CNC(=O)Cc2ccc3c(c2)OCO3)nnc1SCc1ccccc1 > 76.9 µM
O=C(CCCc1nc(-c2ccccc2)no1)Nc1cccnc1 > 76.9 µM
CC(C)CCOP(=O)(c1ccc(N(C)C)cc1)C(O)c1ccccn1 (stereo unspecified) > 76.9 µM
COc1ccc(NC(=O)C2CC(=O)N(c3cccc(C)c3C)C2)cc1 (stereo unspecified) > 76.9 µM
Cc1cccc(-n2c(SCC(=O)Nc3nonc3C)nnc2-c2ccoc2C)c1 > 76.9 µM
CC(OCc1ccccc1)C(NC(=O)OC(C)(C)C)C(=O)NCC1CCCO1 (stereo unspecified) > 76.9 µM
O=C(CN(Cc1ccco1)C(=O)CNS(=O)(=O)c1ccccc1)NC1CCCCC1 > 76.9 µM
O=C(NC1CCN(Cc2nnnn2CCc2ccccc2)CC1)c1ccccc1F > 76.9 µM
Cc1nc2ncnn2c(N2CCN(C(=O)c3cccc(F)c3)CC2)c1Cc1ccccc1 > 76.9 µM
Cc1oc(-c2ccccc2)nc1C(=O)Nc1nccs1 > 76.9 µM
O=C(Cn1nnc(-c2ccccc2)n1)Nc1ccccc1N1CCOCC1 > 76.9 µM
Cc1cc(C)c(NC(=O)CS(=O)CC(=O)Nc2cccnc2)c(C)c1 (stereo unspecified) > 76.9 µM
CC1CC2(C)Oc3ccccc3C3OCC1(CO)C(C)C32 (stereo unspecified) > 76.9 µM
CCC(C(=O)Nc1nnc(-c2ccco2)s1)c1ccccc1 (stereo unspecified) > 76.9 µM
COC(=O)C(C)C1Sc2ccccc2NC1=O (stereo unspecified) > 76.9 µM
COc1ccc(CCNc2oc(Cc3ccccc3)nc2C#N)cc1OC > 76.9 µM
COc1ccc(-c2nnc(SCC(=O)c3ccco3)n2-c2ccccc2)cc1 > 76.9 µM
CC(=O)NCCN=C(C)c1sc2ccccc2c1O > 76.9 µM
O=C(CCNC(=O)Cn1cnc2ccccc2c1=O)NCC1COc2ccccc2O1 (stereo unspecified) > 76.9 µM
CCCCc1c(O)nc(SCC(=O)NCC2CCCO2)[nH]c1=O (stereo unspecified) > 76.9 µM
Cc1cc(OCc2nn[nH]n2)c2c(C)c(CC(=O)O)c(=O)oc2c1 > 76.9 µM
COc1ccc(OCC(=O)Nc2ccc3c(c2)nc(CCN2CCOCC2)n3C)cc1 > 76.9 µM
Oc1ccc(-c2csc(Nc3cccnc3)n2)cc1 > 76.9 µM
CCC(c1nnnn1Cc1ccccc1)N(Cc1cc2cc(OC)ccc2[nH]c1=O)CC1CCCO1 (stereo unspecified) > 76.9 µM
COc1ccc(CCNC(=O)C2CCN(S(=O)(=O)c3cccc4nonc34)CC2)cc1OC > 76.9 µM
Nc1ccc(C23CC4CC(CC(O)(C4)C2)C3)cc1 > 76.9 µM
COc1ccc(CNC(=O)CSc2nnnn2Cc2ccccc2)cc1 > 76.9 µM
Cc1ccc(NC(=O)CC2SC3=NCCCN3C2=O)c(C)c1 (stereo unspecified)
CCOC(=O)N1CCN(C(=O)CN(c2ccc(OCc3ccccc3)cc2)S(C)(=O)=O)CC1 > 76.9 µM
Cn1c(=O)c2[nH]cnc2n(-c2ccccc2)c1=O > 76.9 µM
COCCCNS(=O)(=O)c1ccc2c3c(cccc13)C(=O)S2 > 76.9 µM
O=C(CCc1nc(-c2cccs2)no1)Nc1cnc2ccccc2c1 > 76.9 µM
COc1ccccc1NC(=O)CN1C(=O)NC(CC(C)C)C1=O (stereo unspecified) > 76.9 µM
COc1ccc(C(=O)NC(C(=O)NCc2ccccn2)C(C)C)cc1 (stereo unspecified) > 76.9 µM
CS(=O)(=O)c1ccc2nc(N)sc2c1 > 76.9 µM
COc1ccc(C2=NOC(C(=O)NCCCN3CCOCC3)C2)cc1 (stereo unspecified) > 76.9 µM
C=CCNc1nc(N)c(C(=O)c2ccc3c(c2)OCO3)s1
COC(=O)c1[nH]c2cc(OC)ccc2c1NC(=O)CN1CCOCC1 > 76.9 µM
Cc1oc(-c2ccccc2F)nc1CN1CCC(C(=O)NCc2cccnc2)CC1 > 76.9 µM
O=C1CC(C(=O)N(CC2CCCO2)C(C(=O)NC2CCCCC2)c2ccncc2)CS1 (stereo unspecified) > 76.9 µM
CCOc1cccc2cc(C(=O)N3CCc4ccccc4C3)c(=O)oc12 > 76.9 µM
COCCCNC(=O)CCCC(=O)NCCCOC > 76.9 µM
CCc1ccc(CN2C(=O)CCC2(C)C(=O)NC2CCCC2)cc1 (stereo unspecified) > 76.9 µM
CCn1c(=O)cc(OCC(=O)NCc2ccc(C)o2)c2ccccc21 > 76.9 µM
Cc1ccccc1S(=O)(=O)Cc1ccc(C(=O)N2CCN(c3ncccn3)CC2)o1 > 76.9 µM
COc1cccc(CNn2c(-c3cccc(C)c3)nc3ccccc3c2=O)c1O > 76.9 µM
O=c1c2c3nc4ccccc4nc3n(-c3ccc4c(c3)OCCO4)c2ncn1C1CCCC1
Cc1csc(NC(=O)CSc2nc3sc(C)c(C)c3c(=O)[nH]2)n1 > 76.9 µM
CCOC(=O)Cn1c(=O)c2c(nc3n2CCN3c2ccc(C)cc2)n(C)c1=O > 76.9 µM
COC(=O)c1ccc(NC(=O)C(C)N2C(=O)c3ccccc3C2=O)cc1 (stereo unspecified) > 76.9 µM
CCOc1ccc(C2C=C(c3ccc(C)cc3)Nc3ncnn32)cc1 (stereo unspecified) > 76.9 µM
Nc1nc2c(s1)C(=O)CCC2 > 76.9 µM
COc1cccc(-c2nc(CS(=O)(=O)CC(=O)NCCCOC(C)C)c(C)o2)c1 > 76.9 µM
CCC12CCCN3CCC4(C(=C(C(=O)OC)C1)Nc1ccccc14)C32 (stereo unspecified) > 76.9 µM
COC(=O)Cc1c(C)c2ccc(OCC(=O)NCc3ccc4c(c3)OCO4)cc2oc1=O > 76.9 µM
CCCn1c(NC(=O)c2ccccc2)nc2ccccc21 > 76.9 µM
C=CCn1c(=O)c2ccccc2n2c(SCC(=O)NCc3cccs3)nnc12 > 76.9 µM
CCOc1cc(NS(=O)(=O)CC)c(OCC)cc1NC(=O)c1ccco1 > 76.9 µM
O=C(CNC(=O)c1ccco1)OCN1C(=O)c2ccccc2C1=O > 76.9 µM
COc1ccc(N2C(=O)CC(Sc3nc(C)c4c(n3)CCCC4)C2=O)cc1 (stereo unspecified) > 76.9 µM
Cc1ccc(Cc2nc(-c3cccc(C)c3)no2)cc1 > 76.9 µM
C=CCn1c(SCC(=O)NC2CCCCC2)nnc1C(C)NC(=O)c1cccs1 (stereo unspecified) > 76.9 µM
CCOC(=O)N1CCC(NC(=O)c2sc3nc4n(c(=O)c3c2C)CCCC4)CC1 > 76.9 µM
